Laboratory results reported in paper PMC4336329 (PLoS ONE, 2015).
About 2,200 (0.71%) of roughly 310,000 compounds showed an effect of 50% or more. Effects have a minus sign here. This is one part of the list.

These molecules were tested against human ether-à-go-go-related gene (hERG) potassium channel (human, UniProt Q12809) (assay: primary screen, population patch clamp on CHO cells stably expressing hERG).
Sequence of human ether-à-go-go-related gene (hERG) potassium channel (Q12809 whole entry, looked up): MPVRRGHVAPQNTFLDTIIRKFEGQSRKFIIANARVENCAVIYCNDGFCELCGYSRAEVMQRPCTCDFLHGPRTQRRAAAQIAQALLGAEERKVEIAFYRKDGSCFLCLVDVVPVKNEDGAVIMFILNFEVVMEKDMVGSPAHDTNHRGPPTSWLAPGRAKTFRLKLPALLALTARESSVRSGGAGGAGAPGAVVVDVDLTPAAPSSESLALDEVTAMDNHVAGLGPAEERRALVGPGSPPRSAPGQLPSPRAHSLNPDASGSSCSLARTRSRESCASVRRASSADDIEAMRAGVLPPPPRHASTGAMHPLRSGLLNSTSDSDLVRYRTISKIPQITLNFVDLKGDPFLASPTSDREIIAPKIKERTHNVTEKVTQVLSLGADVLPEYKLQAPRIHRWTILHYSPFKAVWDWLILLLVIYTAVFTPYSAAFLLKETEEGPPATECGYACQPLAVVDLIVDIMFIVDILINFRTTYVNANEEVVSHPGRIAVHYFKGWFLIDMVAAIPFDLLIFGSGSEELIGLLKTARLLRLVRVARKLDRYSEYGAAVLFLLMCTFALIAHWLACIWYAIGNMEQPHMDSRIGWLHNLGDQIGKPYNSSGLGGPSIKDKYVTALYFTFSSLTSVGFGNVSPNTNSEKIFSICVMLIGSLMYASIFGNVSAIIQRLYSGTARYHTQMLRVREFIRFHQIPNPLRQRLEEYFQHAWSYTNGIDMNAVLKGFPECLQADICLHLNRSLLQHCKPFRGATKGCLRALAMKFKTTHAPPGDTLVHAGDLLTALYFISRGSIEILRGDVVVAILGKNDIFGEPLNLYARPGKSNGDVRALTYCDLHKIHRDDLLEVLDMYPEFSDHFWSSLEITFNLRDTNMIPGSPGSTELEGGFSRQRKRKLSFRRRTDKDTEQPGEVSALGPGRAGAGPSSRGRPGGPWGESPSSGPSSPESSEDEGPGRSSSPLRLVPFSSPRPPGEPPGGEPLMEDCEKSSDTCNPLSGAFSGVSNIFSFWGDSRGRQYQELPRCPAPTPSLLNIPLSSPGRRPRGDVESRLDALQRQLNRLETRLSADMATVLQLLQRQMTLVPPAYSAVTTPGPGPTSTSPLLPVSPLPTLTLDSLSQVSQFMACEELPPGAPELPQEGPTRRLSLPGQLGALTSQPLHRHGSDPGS

Q: How did the “hERG current change (%, negative = inhibition) at 1uM” value turn out when `COc1ccc(/C(N)=N/OC(=O)c2ccco2)cc1OC` was run?
A: The value was 13.3%.

Q: With `CC(OC(=O)c1ccc(-c2ccc(O)cc2)cc1)C(=O)NC1CCCCC1C` (stereo not drawn) as the molecule, how does the “hERG current change (%, negative = inhibition) at 1uM” value read?
A: Its value is 10.2%.

Q: With `CSc1ccc(CN(C)C(=O)CSCC(=O)Nc2cc(C)on2)cc1` as the molecule, how does the “hERG current change (%, negative = inhibition) at 1uM” value read?
A: Its value is -5.1%.

Q: Which “hERG current change (%, negative = inhibition) at 1uM” value does the source give for `CCCCc1cc(=O)oc2cc(OC(C)C(=O)NCc3ccccn3)c(Cl)cc12` (stereo not drawn) here?
A: Its value is -2.69%.

Q: For `COc1ccc(CCNC(=O)c2cc(C3CC3)nc3c2cnn3C(C)C)cc1OC`, which “hERG current change (%, negative = inhibition) at 1uM” value is on record?
A: The value was 8.96%.

Q: With `CSCCC(NS(=O)(=O)c1ccc2ccccc2c1)C(=O)OCC(=O)c1ccc(C(C)C)cc1` (stereo not drawn) as the molecule, how does the “hERG current change (%, negative = inhibition) at 1uM” value read?
A: The value was 8.03%.

Q: How did the “hERG current change (%, negative = inhibition) at 1uM” value turn out when `CCOC(=O)C(Cc1ccccc1)NC(=O)Cn1nnc(-c2ccc(SC)cc2)n1` (stereo not drawn) was run?
A: The value was -7.22%.

Q: How did the “hERG current change (%, negative = inhibition) at 1uM” value turn out when `COc1ccc(NC(=O)CCc2nnc3ccc(N4CCC5(CC4)OCCO5)nn23)cc1` was run?
A: The value was 12.9%.

Q: How did the “hERG current change (%, negative = inhibition) at 1uM” value turn out when `CCc1cc2ccccc2nc1SCC(=O)Nc1cc(C)on1` was run?
A: The value was 5.85%.

Q: For `CCC(C)NC(=O)CC(C)C` (stereo not drawn), which “hERG current change (%, negative = inhibition) at 1uM” value is on record?
A: Its value is 4.98%.

Q: How did the “hERG current change (%, negative = inhibition) at 1uM” value turn out when `CS(=O)(=O)c1ccc(NC(=O)C2CCCN(C(=O)c3ccc(Cl)cc3)C2)cc1` (stereo not drawn) was run?
A: Its value is -1.77%.

Q: Which “hERG current change (%, negative = inhibition) at 1uM” value does the source give for `COc1ccc(Nc2nc(Cl)nc(Nc3ccc(OC)cc3)n2)cc1` here?
A: Its value is 9%.

Q: For `CCCC[C@H]1C2=C3[C@@H](CC(C(=O)OC)=C[C@@H](C(=O)OC)[C@H]3C(C)(C)C2=O)n2c(=O)n(-c3ccccc3)c(=O)n21`, which “hERG current change (%, negative = inhibition) at 1uM” value is on record?
A: Its value is 7.47%.

Q: For `O=C(Cc1ccccc1[N+](=O)[O-])OCC(=O)N1CCN(c2ccccc2)CC1`, which “hERG current change (%, negative = inhibition) at 1uM” value is on record?
A: Its value is 8.02%.

Q: How did the “hERG current change (%, negative = inhibition) at 1uM” value turn out when `CCN(CC)S(=O)(=O)c1ccc(NS(=O)(=O)c2cccc(C)c2)cc1` was run?
A: Its value is 5.29%.

Q: `CC1CCN(CCCNC(=O)c2ccc(N3CCCC3=O)cc2)CC1` was tested. Which “hERG current change (%, negative = inhibition) at 1uM” value did it give?
A: The value was 8.23%.

Q: With `Cc1ccccc1S(=O)(=O)Cc1ccc(C(=O)NCCN2CCN(Cc3ccccc3)CC2)o1` as the molecule, how does the “hERG current change (%, negative = inhibition) at 1uM” value read?
A: Its value is -14.6%.

Q: For `O=C(NCc1ccccn1)c1ccccc1OCc1ccc(F)cc1`, which “hERG current change (%, negative = inhibition) at 1uM” value is on record?
A: The value was -22.7%.

Q: With `C=CCn1c(SCC(=O)Nc2sccc2C(N)=O)nc2ccccc2c1=O` as the molecule, how does the “hERG current change (%, negative = inhibition) at 1uM” value read?
A: Its value is 9.41%.

Q: For `O=C(NCc1ccc(Cl)c(Cl)c1)c1ccco1`, which “hERG current change (%, negative = inhibition) at 1uM” value is on record?
A: Its value is -1.16%.

Q: Which “hERG current change (%, negative = inhibition) at 1uM” value does the source give for `CCOc1ccc(NC(=O)c2ccc(NC(=O)C3CCCO3)cc2)cc1` (stereo not drawn) here?
A: The value was 11.3%.

Q: With `CCCc1nnc(NC(=O)CCC(=O)N2CCN(S(=O)(=O)c3ccc(C)cc3)CC2)s1` as the molecule, how does the “hERG current change (%, negative = inhibition) at 1uM” value read?
A: The value was 13.1%.

Q: How did the “hERG current change (%, negative = inhibition) at 1uM” value turn out when `CC(C)(C)c1ccc(-c2nc(C=O)c3ccccn23)cc1` was run?
A: Its value is -7.91%.

Q: How did the “hERG current change (%, negative = inhibition) at 1uM” value turn out when `COC(=O)CSc1cc(C)nc(SC)n1` was run?
A: Its value is 0.266%.

Q: Which “hERG current change (%, negative = inhibition) at 1uM” value does the source give for `Cc1ccccc1-c1coc2cc(O)ccc2c1=O` here?
A: Its value is 8.38%.

Q: How did the “hERG current change (%, negative = inhibition) at 1uM” value turn out when `COc1ccccc1CNC(=O)CCC(=O)N1C[C@H]2C[C@@H](C1)c1cccc(=O)n1C2` was run?
A: The value was 2.03%.

Q: How did the “hERG current change (%, negative = inhibition) at 1uM” value turn out when `COC(=O)[C@H]1[C@H](c2ccccc2)[C@H](C(=O)OC)O[C@H]1c1ccccc1` was run?
A: The value was 11.8%.

Q: Which “hERG current change (%, negative = inhibition) at 1uM” value does the source give for `c1ccc(Cn2cc(CNc3ccccc3)nn2)cc1` here?
A: The value was 6.25%.

Q: `CCCCNC(=O)CSc1nc2ccccc2c(=O)n1Cc1ccc2c(c1)OCO2` was tested. Which “hERG current change (%, negative = inhibition) at 1uM” value did it give?
A: Its value is 13.2%.

Q: `O=C(C(=O)N1CCc2ccccc2C1)c1cn(CC(=O)N2CCCCC2)c2ccccc12` was tested. Which “hERG current change (%, negative = inhibition) at 1uM” value did it give?
A: Its value is -2.82%.

Q: `COCCC(=O)N1CCC(Oc2ccc(C(=O)NCc3ccon3)cc2)CC1` was tested. Which “hERG current change (%, negative = inhibition) at 1uM” value did it give?
A: The value was 13.9%.

Q: With `COc1ccccc1C(=O)NCCC(=O)N1CCCCC1` as the molecule, how does the “hERG current change (%, negative = inhibition) at 1uM” value read?
A: Its value is 13%.

Q: How did the “hERG current change (%, negative = inhibition) at 1uM” value turn out when `CCOC(=O)C1CCN(S(=O)(=O)c2ccc(Cl)nc2)CC1` was run?
A: The value was 8.17%.

Q: For `CC(C)n1nnnc1SCC(=O)Nc1ccc2c(c1)OCO2`, which “hERG current change (%, negative = inhibition) at 1uM” value is on record?
A: Its value is -4.36%.

Q: For `Cc1ccc(C)c(NC(=S)N2CCC(NC(=O)C3CCCCC3)CC2)c1`, which “hERG current change (%, negative = inhibition) at 1uM” value is on record?
A: Its value is 4.73%.

Q: `CN(C[C@H](Cc1ccccc1)N(C[C@@H](Cc1cccc2ccccc12)N(CCc1ccccc1)N=O)N=O)N=O.[Na+]` was tested. Which “hERG current change (%, negative = inhibition) at 1uM” value did it give?
A: The value was 14.1%.

Q: For `CCc1ccc(NC(=O)c2cc(C(C)C)on2)cc1`, which “hERG current change (%, negative = inhibition) at 1uM” value is on record?
A: Its value is -17.8%.

Q: Which “hERG current change (%, negative = inhibition) at 1uM” value does the source give for `O=C(/C=C/c1ccco1)NC(=S)Nc1nc(-c2ccc3ccccc3c2)cs1` here?
A: Its value is 16.3%.

Q: For `COc1ccccc1N1CCN(C(CNC(=O)Oc2ccccc2)c2cccnc2)CC1` (stereo not drawn), which “hERG current change (%, negative = inhibition) at 1uM” value is on record?
A: Its value is 2.94%.

Q: With `COc1cccc(-c2ncc3ccccc3c2CO)c1` as the molecule, how does the “hERG current change (%, negative = inhibition) at 1uM” value read?
A: The value was 12.4%.

Q: With `CC1CCC/C(=C\Nc2ccc(C(=O)O)c(O)c2)C1=O` (stereo not drawn) as the molecule, how does the “hERG current change (%, negative = inhibition) at 1uM” value read?
A: Its value is 9.19%.

Q: How did the “hERG current change (%, negative = inhibition) at 1uM” value turn out when `CCCCOC(=O)CCc1nc2ccccc2[nH]1.Cl` was run?
A: The value was 9.71%.

Q: How did the “hERG current change (%, negative = inhibition) at 1uM” value turn out when `CSCCC(N=C(NS(=O)(=O)c1ccccc1)c1ccccc1)C(=O)O` (stereo not drawn) was run?
A: The value was 8.5%.

Q: How did the “hERG current change (%, negative = inhibition) at 1uM” value turn out when `COCCCNc1cc(C)nc2ccccc12.Cl` was run?
A: Its value is -10.3%.

Q: `Cc1cccc(NC(=O)CSc2ccc(-c3ccc4c(c3)OCO4)nn2)c1C` was tested. Which “hERG current change (%, negative = inhibition) at 1uM” value did it give?
A: Its value is 4.13%.

Q: How did the “hERG current change (%, negative = inhibition) at 1uM” value turn out when `CCOC(=O)c1cnc(SCC(=O)NCc2cccs2)nc1N` was run?
A: The value was 8.72%.

Q: `Cc1ccc(Cn2cc(S(=O)(=O)c3ccc(C(C)C)cc3)c(=O)c3cc4c(cc32)OCO4)cc1` was tested. Which “hERG current change (%, negative = inhibition) at 1uM” value did it give?
A: The value was 1.66%.

Q: How did the “hERG current change (%, negative = inhibition) at 1uM” value turn out when `CCCCOCCCNC1=NCCCCC1` was run?
A: The value was 5.99%.

Q: `COCCCNC(=O)C(F)(F)C(F)(F)C(=O)NCCCOC` was tested. Which “hERG current change (%, negative = inhibition) at 1uM” value did it give?
A: The value was 4.13%.

Q: How did the “hERG current change (%, negative = inhibition) at 1uM” value turn out when `Cc1onc(-c2ccccc2Cl)c1C(=O)N1CCOC12CCCCC2` was run?
A: Its value is 8.25%.

Q: With `CCOC(=O)/C=C1\NC(=O)C(C)S1` (stereo not drawn) as the molecule, how does the “hERG current change (%, negative = inhibition) at 1uM” value read?
A: The value was 11.6%.

Q: With `CCCCCCS(=O)[C@H]1CS(=O)(=O)C[C@@H]1S(=O)CCCCCC` (stereo partly drawn) as the molecule, how does the “hERG current change (%, negative = inhibition) at 1uM” value read?
A: The value was -25.8%.

Q: With `CCC(=O)[C@@]1(C)[C@H](C)C[C@H]2[C@@H]3CCC4=CC(=O)C=C[C@]4(C)[C@H]3[C@@H](O)C[C@@]21C` as the molecule, how does the “hERG current change (%, negative = inhibition) at 1uM” value read?
A: Its value is 9.03%.

Q: `CCOc1ccc(-c2c(C(=O)N/N=C/c3ccoc3)nnn2-c2nonc2N)cc1` was tested. Which “hERG current change (%, negative = inhibition) at 1uM” value did it give?
A: The value was 13.6%.

Q: Which “hERG current change (%, negative = inhibition) at 1uM” value does the source give for `Cl.Clc1ccc(CN2C3=NCCN3c3ccccc32)cc1Cl` here?
A: Its value is -72.3%.

Q: How did the “hERG current change (%, negative = inhibition) at 1uM” value turn out when `O=c1[nH]c(=S)n(C2CC2)c(O)c1/C=N/Nc1ccccc1` was run?
A: The value was 8.59%.

Q: `COc1cc(/C=C2/SC(=S)N(Cc3ccccc3)C2=O)ccc1OCC(=O)O` was tested. Which “hERG current change (%, negative = inhibition) at 1uM” value did it give?
A: The value was 11.2%.
